Experimental data as given in the supplement of paper PMC9446081.
Out of some 39,000 compounds screened, about 220 (0.56%) showed activity. This is one part of the list.

What follows are compounds tested on Escherichia coli K-12 BW25113 (assay: relative growth (OD600 normalised to plate interquartile mean) (fraction); higher = less growth inhibition, active = 0.2 or less). Conditions: 50 µM; LB; incubation time: overnight (16-24 h).
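Note: static incubation at 37 °C against the wild-type strain, values averaged over two biological replicates.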

`Cc1cc(Cl)cc2sc(N(Cc3ccccn3)C(=O)c3ccc(S(=O)(=O)N4CCCC4)cc3)nc12` was tested. Which relative growth did it give?
Its relative growth is inactive: 1.04.

For `C[C@H](CO)N1C[C@H](C)[C@H](CN(C)C(=O)NC2CCCCC2)Oc2ccc(NS(C)(=O)=O)cc2C1=O`, which relative growth is on record?
The relative growth was inactive: 0.995.

`O=S(=O)(c1ccc(-n2cnnn2)cc1)N1CCNCC1` was tested. Which relative growth did it give?
Its relative growth is inactive: 0.947.

For `COc1ccc(S(=O)(=O)N[C@@H]2CC[C@H](CC(=O)N3CCC(Cc4ccccc4)CC3)O[C@H]2CO)cc1`, which relative growth is on record?
The relative growth was inactive: 0.994.

Which relative growth does the source give for `C[C@@H]1CCCCO[C@H](CN(C)C(=O)Nc2cccc3ccccc23)[C@@H](C)CN([C@H](C)CO)C(=O)c2cc(N(C)C)ccc2O1` here?
Its relative growth is inactive: 1.02.

`C[C@@H]1OC2=C(Cl)C(=O)N3CCC[C@@H]3C[C@]21O` was tested. Which relative growth did it give?
Its relative growth is inactive: 0.991.

Which relative growth does the source give for `COc1ccc(S(=O)(=O)N(C)C[C@@H]2OCCCC[C@@H](C)Oc3ccc(NC(=O)Nc4c(C)noc4C)cc3C(=O)N([C@@H](C)CO)C[C@H]2C)cc1` here?
The relative growth was inactive: 0.96.

For `O=NN(CCCl)C(=O)NCCCl`, which relative growth is on record?
Its relative growth is inactive: 1.12.

With `COc1ccc(S(=O)(=O)N(C)C[C@H]2OCCCC[C@@H](C)Oc3ccc(NC(=O)Nc4ccc(F)cc4)cc3C(=O)N([C@@H](C)CO)C[C@@H]2C)cc1` as the compound, how does the relative growth read?
The relative growth was inactive: 1.06.

How did the relative growth turn out when `NCC[C@@H]1CC[C@H](NC(=O)C2CCCC2)[C@H](CO)O1` was run?
The relative growth was inactive: 0.969.

For `COc1ccc(NC(=O)N2C[C@@H](O)COC[C@H]3O[C@H](CC(=O)NC4Cc5ccccc5C4)CC[C@@H]32)cc1`, which relative growth is on record?
The relative growth was inactive: 0.981.

Which relative growth does the source give for `C[C@H]1CN([C@@H](C)CO)C(=O)c2cc(NS(=O)(=O)c3ccc(Cl)cc3)ccc2O[C@H]1CN(C)S(C)(=O)=O` here?
The relative growth was inactive: 0.978.

With `CCOC(=O)c1ncn2c1CN(C)C(=O)c1cc(F)ccc1-2` as the compound, how does the relative growth read?
The relative growth was inactive: 1.03.

With `Cn1cnc(S(=O)(=O)N2C[C@H](O)COC[C@H]3O[C@H](CC(=O)NC4CCC4)CC[C@@H]32)c1` as the compound, how does the relative growth read?
The relative growth was inactive: 0.99.

For `Cn1nccc1C(=O)NCCN`, which relative growth is on record?
Its relative growth is inactive: 1.02.

How did the relative growth turn out when `CO[C@@H]1CN(C)C(=O)c2ccc(NS(C)(=O)=O)cc2OC[C@H](C)N(C(=O)CN(C)C)C[C@H]1C` was run?
Its relative growth is inactive: 0.996.

How did the relative growth turn out when `COCC(=O)N1C[C@@H](C)[C@H](OC)CN(C)C(=O)c2ccc(NC(=O)Nc3cccc(F)c3)cc2OC[C@H]1C` was run?
The relative growth was inactive: 0.973.

How did the relative growth turn out when `COc1cccc(NC(=O)C[C@H]2CC[C@@H]3[C@@H](COc4ccc(NC(=O)C5CCOCC5)cc4C(=O)N3C)O2)c1` was run?
Its relative growth is inactive: 0.988.

How did the relative growth turn out when `C[C@@H]1CN([C@@H](C)CO)C(=O)c2cc(C#CCN(C)C)cnc2O[C@@H]1CN(C)S(=O)(=O)c1ccccc1` was run?
Its relative growth is inactive: 0.998.

`CC(C)Cc1ccc([C@@H](C)c2nc(-c3cccs3)no2)cc1` was tested. Which relative growth did it give?
The relative growth was inactive: 1.

With `CC(C)NC(=O)Nc1ccc2c(c1)CC(=O)N([C@@H](C)CO)C[C@@H](C)[C@@H](CN(C)S(=O)(=O)c1cn(C)cn1)O2` as the compound, how does the relative growth read?
Its relative growth is inactive: 1.01.

How did the relative growth turn out when `COCC(=O)N1C[C@@H](C)[C@H](OC)CN(C)C(=O)c2ccc(NC(=O)c3cc(C)on3)cc2OC[C@H]1C` was run?
The relative growth was inactive: 0.988.

How did the relative growth turn out when `CC(C)CC#Cc1ccc2c(c1)O[C@@H](CN(C)C(=O)Cc1ccncc1)[C@@H](C)CN([C@H](C)CO)S2(=O)=O` was run?
The relative growth was inactive: 1.03.

How did the relative growth turn out when `Cc1c(C)c2c(c(C)c1OC(=O)CCC(=O)O)CC[C@@](C)(CCC[C@H](C)CCC[C@H](C)CCCC(C)C)O2` was run?
The relative growth was inactive: 1.04.

With `COc1ccc2c3c([nH]c2c1)[C@@H](CO)N(C[C@]13CN(C1)S(=O)(=O)C)C(=O)c1cnccn1` as the compound, how does the relative growth read?
The relative growth was inactive: 1.

With `O=C(O)c1ccno1` as the compound, how does the relative growth read?
The relative growth was inactive: 0.986.

`Cn1c(=O)c2c(nc(NCCN)n2Cc2ccc(Cl)cc2)n(C)c1=O` was tested. Which relative growth did it give?
The relative growth was inactive: 1.01.

`C[C@@H]1CN([C@@H](C)CO)C(=O)Cc2cc(NC(=O)Nc3cccc4ccccc34)ccc2O[C@@H]1CN(C)Cc1ccccc1` was tested. Which relative growth did it give?
The relative growth was inactive: 1.02.

`C[C@@H]1CN([C@H](C)CO)C(=O)c2cccc(NS(=O)(=O)c3ccccc3)c2O[C@H]1CN(C)S(=O)(=O)c1ccc(F)cc1` was tested. Which relative growth did it give?
Its relative growth is inactive: 0.978.

`CC(C)NC(=O)Nc1ccc2c(c1)CC(=O)N([C@H](C)CO)C[C@@H](C)[C@H](CN(C)Cc1ccc(C(=O)O)cc1)O2` was tested. Which relative growth did it give?
Its relative growth is inactive: 0.998.

`CCCNC(=O)N1C[C@]2(CCN(CC2)S(=O)(=O)c2ccc(cc2)OC)c2c(n(c3cc(ccc23)OC)C)[C@H]1CO` was tested. Which relative growth did it give?
Its relative growth is inactive: 1.02.

With `C[C@H]1CC/C=C\[C@H]2O[C@@]34C=CCN(CCN5CCOCC5)C(=O)[C@H]3N(CCO)C(=O)[C@@H]4[C@@H]2C(=O)O1` as the compound, how does the relative growth read?
The relative growth was inactive: 0.966.

How did the relative growth turn out when `CC(C)NC(=O)N(C)C[C@H]1Oc2cc(-c3ccccc3F)ccc2S(=O)(=O)N([C@H](C)CO)C[C@@H]1C` was run?
The relative growth was inactive: 0.998.

For `COc1c(C)cc(-c2cc3c(c(-c4ccccc4)n2)[Si](C(C)C)(C(C)C)O[C@H]3c2ccccc2)cc1C`, which relative growth is on record?
Its relative growth is inactive: 1.01.

With `COCC#Cc1cnc2c(c1)C(=O)N([C@H](C)CO)C[C@@H](C)[C@@H](CN(C)C(=O)Nc1ccc(OC)cc1)O2` as the compound, how does the relative growth read?
Its relative growth is inactive: 0.977.

`O=C(C[C@@H]1C=C[C@@H](NC(=O)Nc2cc(F)ccc2F)[C@H](CO)O1)NCCCN1CCOCC1` was tested. Which relative growth did it give?
Its relative growth is inactive: 1.02.

For `C[C@@H]1CN([C@@H](C)CO)C(=O)c2cc(NC(=O)Cc3cn(C)c4ccccc34)ccc2O[C@H]1CN(C)C(=O)Nc1ccc(C(F)(F)F)cc1`, which relative growth is on record?
The relative growth was inactive: 0.994.

Which relative growth does the source give for `COc1cccc(NC(=O)N[C@H]2CC[C@H](CC(=O)N3CCOCC3)O[C@@H]2CO)c1` here?
Its relative growth is inactive: 1.01.

How did the relative growth turn out when `Cc1ccc(-c2ccc3c(c2)O[C@@H](CN(C)C(=O)Nc2ccc(C(F)(F)F)cc2)[C@@H](C)CN([C@@H](C)CO)S3(=O)=O)cc1` was run?
The relative growth was inactive: 0.852.

Which relative growth does the source give for `COc1ccccc1C#Cc1cnc2c(c1)C(=O)N([C@H](C)CO)C[C@H](C)[C@H](CN(C)S(=O)(=O)c1cn(C)cn1)O2` here?
Its relative growth is inactive: 0.997.

With `O=C(C[C@H]1CC[C@@H]2[C@H](COC[C@H](O)CN2S(=O)(=O)c2cccc(Cl)c2)O1)NCc1ccc2c(c1)OCO2` as the compound, how does the relative growth read?
The relative growth was inactive: 1.01.

With `C[C@H](CO)N1C[C@H](C)[C@H](CN(C)C(=O)Nc2cccc3ccccc23)OCCCC[C@H](C)Oc2ccc(NC(=O)NC3CCCCC3)cc2C1=O` as the compound, how does the relative growth read?
The relative growth was inactive: 1.02.

For `CN(C)CCOc1ccc(C(=C(CCCl)c2ccccc2)c2ccccc2)cc1.O=C(O)CC(O)(CC(=O)O)C(=O)O`, which relative growth is on record?
Its relative growth is inactive: 0.722.

Which relative growth does the source give for `C[C@@H]1CN([C@H](C)CO)S(=O)(=O)c2ccc(C#C[C@@H](C)O)cc2O[C@@H]1CN(C)C(=O)c1ccccc1` here?
Its relative growth is inactive: 1.01.

For `Cc1ccc(S(=O)(=O)Nc2ccc3c(c2)C(=O)N([C@H](C)CO)C[C@H](C)[C@@H](CN(C)C(=O)c2ccccc2)OCCCC[C@H](C)O3)cc1`, which relative growth is on record?
Its relative growth is inactive: 0.984.

For `C[C@@H]1CN([C@H](C)CO)C(=O)c2cc(NC(=O)C3CC3)ccc2O[C@@H]1CN(C)Cc1ccc(Oc2ccccc2)cc1`, which relative growth is on record?
The relative growth was inactive: 0.998.

For `CC(=O)OCC(=O)C1(O)CCC2C3CCC4=CC(=O)CCC4(C)C3C(O)CC21C` (centres undefined), which relative growth is on record?
Its relative growth is inactive: 1.01.

With `C[C@@H]1CCCCO[C@@H](CN(C)CC2CC2)[C@H](C)CN([C@H](C)CO)C(=O)c2cc(NC(=O)c3ccccc3)ccc2O1` as the compound, how does the relative growth read?
The relative growth was inactive: 1.

How did the relative growth turn out when `C[C@@H]1CN([C@H](C)CO)C(=O)Cc2cc(NC(=O)Cn3cnnn3)ccc2O[C@H]1CN(C)Cc1ccc(C(F)(F)F)cc1` was run?
Its relative growth is inactive: 0.891.

`Cc1cc(C(=O)Nc2cccc3c2O[C@H](CN(C)S(=O)(=O)c2ccc(Cl)cc2)[C@H](C)CN([C@@H](C)CO)C3=O)n(C)n1` was tested. Which relative growth did it give?
The relative growth was inactive: 0.996.

For `C[C@H]1CCCCO[C@H](CN(C)C(=O)Nc2ccccc2)[C@@H](C)CN([C@@H](C)CO)C(=O)c2cc(NC(=O)Nc3cccc4ccccc34)ccc2O1`, which relative growth is on record?
Its relative growth is inactive: 1.03.

How did the relative growth turn out when `O=C(C[C@@H]1CC[C@@H]2[C@H](COC[C@H](O)CN2S(=O)(=O)c2ccc(F)cc2)O1)NCc1ccncn1` was run?
Its relative growth is inactive: 0.961.

For `C[C@@H]1CCCCO[C@H](CN(C)C(=O)C2CCCCC2)[C@H](C)CN([C@H](C)CO)C(=O)c2cc(NS(=O)(=O)c3ccc(F)cc3)ccc2O1`, which relative growth is on record?
The relative growth was inactive: 1.03.

For `COc1ccccc1Nc1nc(-c2ccc(Cl)cc2)cs1`, which relative growth is on record?
The relative growth was inactive: 1.03.

`C[C@@H]1CN([C@H](C)CO)C(=O)c2cc(NC(=O)Nc3ccc(C(F)(F)F)cc3)ccc2O[C@@H](C)CCCCO[C@H]1CN(C)Cc1ccc(C(=O)O)cc1` was tested. Which relative growth did it give?
Its relative growth is inactive: 0.89.

For `CNC(=O)C[C@H]1Nc2ccccc2NC1=O`, which relative growth is on record?
The relative growth was inactive: 1.02.

Which relative growth does the source give for `COCC(=O)N1C[C@]2(CN(C2)C(=O)CN2CCOCC2)c2c([nH]c3cc(ccc23)OC)[C@H]1CO` here?
The relative growth was inactive: 0.977.

`C/C=C/c1cccc(-c2nc(C(=O)NCc3ccccc3)cc3c2[C@@H](CCO)N([S@](=O)C(C)(C)C)C3)c1` was tested. Which relative growth did it give?
The relative growth was inactive: 0.989.

How did the relative growth turn out when `Cc1cc(O)n(C[C@@H](C)O)c(=O)c1C#N` was run?
The relative growth was inactive: 1.02.

`CC(C)(C)OC(=O)N1CC(O)C1` was tested. Which relative growth did it give?
Its relative growth is inactive: 1.01.

Which relative growth does the source give for `C[C@@H]1CN([C@H](C)CO)C(=O)Cc2cc(NC(=O)Nc3ccc(C(F)(F)F)cc3)ccc2O[C@@H]1CN(C)C(=O)Nc1ccccc1` here?
The relative growth was inactive: 1.01.

Which relative growth does the source give for `CC(C)NC(=O)Nc1ccc2c(c1)C(=O)N([C@@H](C)CO)C[C@@H](C)[C@@H](CN(C)C(=O)Nc1ccc(C(F)(F)F)cc1)OCCCC[C@@H](C)O2` here?
Its relative growth is inactive: 1.02.

How did the relative growth turn out when `C[C@H](CO)N1C[C@H](C)[C@@H](CN(C)S(=O)(=O)c2cn(C)cn2)Oc2ccc(NS(C)(=O)=O)cc2CC1=O` was run?
The relative growth was inactive: 1.04.

For `C[C@@H]1CN(C)C(=O)c2cccc(NC(=O)c3ccncc3)c2O[C@H]1CN(C)Cc1ccc(Oc2ccccc2)cc1`, which relative growth is on record?
The relative growth was inactive: 0.998.
